In the supplement of paper PMC4604168 (melanoma cell lines) one finds cell count data, which are given here for five molecules.

The other results are listed elsewhere or left out. Most values come without repeats; read them as rough.
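Further: cell number obtained by counting DAPI-stained nuclei in high-throughput microscope images with image analysis software, screen run in 1,536-well plates.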

In this assay the test system is WM451Lu. The assay is described as follows: cell count relative to DMSO control; melanoma cells; higher = more viable cells. Conditions: library dose: low library concentration; 72 h.
In turn, `Clc1ccc(Nc2nnc(Cc3ccncc3)c3ccccc23)cc1` [vatalanib] + O=C(Oc1ccc([N+](=O)[O-])cc1)N1CCC(C(O)(c2ccc3c(c2)OCO3)c2ccc3c(c2)OCO3)CC1 [JZL184] (first compound 2 µM, partner dose 1 µM) came in with a cell count of 104%.
The figure for `COc1cc2ncnc(Nc3ccc(Oc4ccccc4)cc3)c2cc1OC` + O=C(Oc1ccc([N+](=O)[O-])cc1)N1CCC(C(O)(c2ccc3c(c2)OCO3)c2ccc3c(c2)OCO3)CC1 [JZL184] (first compound 2 µM, partner dose 1 µM) is 96.5%; for `Nc1ccn([C@@H]2O[C@H](CO)[C@@H](O)C2(F)F)c(=O)n1` [gemcitabine] + C[As](C)SC[C@H](NC(=O)CC[C@H](N)C(=O)O)C(=O)NCC(=O)O [Darinaparsin] (first compound 0.0004 µM, partner dose 0.4 µM) it is 95.8%; for `CC(C)C[C@H](NC(=O)[C@H](Cc1ccccc1)NC(=O)c1cnccn1)B(O)O` [Bortezomib] + O=C(Oc1ccc([N+](=O)[O-])cc1)N1CCC(C(O)(c2ccc3c(c2)OCO3)c2ccc3c(c2)OCO3)CC1 [JZL184] (first compound 0.001 µM, partner dose 1 µM) it is 77.8%.
In turn, `c1cc(-c2cnn3cc(-c4ccc(OCCN5CCCCC5)cc4)cnc23)ccn1` [Dorsomorphin] + O=C(Oc1ccc([N+](=O)[O-])cc1)N1CCC(C(O)(c2ccc3c(c2)OCO3)c2ccc3c(c2)OCO3)CC1 [JZL184] (first compound 0.4 µM, partner dose 1 µM) came in with a cell count of 91.4%.
